These are yes or no findings as the source states them, for the method shown. In cells and extracts the contact can be indirect. Some results given as binding are weak or reduced against the parent protein; the word gives no strength.
Assays:
[1] = biological target: N-terminal 29 residues of GAP45 fused to GFP (N-GAP45) (P. falciparum) (UniProt Q8I5I8); test: co-IP; GFP-fusion proteins precipitated from schizont lysates (10 mM Tris-HCl pH 7.5, 150 mM NaCl, 0.5 mM EDTA, 0.5% NP-40, diluted with buffer lacking NP-40) with GFP-Trap beads, 1 h at RT; Western blotting with antibodies to GFP, GAP45, GAP50, MTIP, MyoA, CDPK1
[2] = biological target: full-length GAP45 in which GFP was inserted into the ORF just after the N-terminal 29 amino acids (FL-GAP45) (P. falciparum) (UniProt Q8I5I8); test: as above

Sequences of proteins named here, by UniProt entry; tags and fusion partners are left off. A change or cut given only in a name is not applied to a line headed by its entry. A line that says so, or that is headed by a name, gives the form on record, which may keep a tag or linker. Residues count along the entry.
UniProt Q8I5I8: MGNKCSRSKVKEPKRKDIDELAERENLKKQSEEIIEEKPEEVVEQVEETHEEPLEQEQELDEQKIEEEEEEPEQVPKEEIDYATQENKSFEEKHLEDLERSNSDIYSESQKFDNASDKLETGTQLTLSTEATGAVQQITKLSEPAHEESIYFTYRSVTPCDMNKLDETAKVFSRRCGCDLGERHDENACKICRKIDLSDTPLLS
N-terminal 29 residues of GAP45 fused to GFP (N-GAP45): residues 1-29 of Q8I5I8
UniProt Q8I4W8: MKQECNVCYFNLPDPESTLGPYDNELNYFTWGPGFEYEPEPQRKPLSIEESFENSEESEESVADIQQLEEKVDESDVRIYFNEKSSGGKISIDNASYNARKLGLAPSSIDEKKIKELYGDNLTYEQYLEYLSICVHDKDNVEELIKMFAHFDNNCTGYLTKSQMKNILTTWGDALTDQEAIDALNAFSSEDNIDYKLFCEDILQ
UniProt Q8IDR3: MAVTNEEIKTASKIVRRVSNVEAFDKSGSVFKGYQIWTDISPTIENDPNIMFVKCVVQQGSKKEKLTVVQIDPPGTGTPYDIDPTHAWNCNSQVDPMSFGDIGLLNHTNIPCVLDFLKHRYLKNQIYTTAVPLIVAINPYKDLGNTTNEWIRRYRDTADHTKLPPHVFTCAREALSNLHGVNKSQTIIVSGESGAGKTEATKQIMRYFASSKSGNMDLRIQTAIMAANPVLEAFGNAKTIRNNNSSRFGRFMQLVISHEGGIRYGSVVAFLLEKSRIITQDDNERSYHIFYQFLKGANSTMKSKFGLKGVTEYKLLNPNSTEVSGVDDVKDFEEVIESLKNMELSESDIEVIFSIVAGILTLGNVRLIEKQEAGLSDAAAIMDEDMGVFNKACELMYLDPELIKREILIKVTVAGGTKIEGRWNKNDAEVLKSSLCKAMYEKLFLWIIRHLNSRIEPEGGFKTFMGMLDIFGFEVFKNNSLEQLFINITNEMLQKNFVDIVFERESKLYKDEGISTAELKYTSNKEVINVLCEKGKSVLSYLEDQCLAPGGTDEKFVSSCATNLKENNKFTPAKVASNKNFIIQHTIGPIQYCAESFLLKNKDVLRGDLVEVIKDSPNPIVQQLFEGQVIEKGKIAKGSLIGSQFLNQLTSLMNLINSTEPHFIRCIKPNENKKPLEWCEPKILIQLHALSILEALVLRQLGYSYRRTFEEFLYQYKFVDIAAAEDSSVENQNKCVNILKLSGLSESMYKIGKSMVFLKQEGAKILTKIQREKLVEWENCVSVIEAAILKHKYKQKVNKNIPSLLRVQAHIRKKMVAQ

| Substance | binding [1] | binding [2] |
| --- | --- | --- |
| myosin tail domain interacting protein (MTIP) (from UniProt Q8I4W8 1-204) | no binding | binds |
| native GAP45 (from UniProt Q8I5I8 1-204) | – | no binding |
| myosin A (MyoA, a type XIV myosin) (from UniProt Q8IDR3 1-818) | no binding | binds |

Source: paper PMC3316498
